According to the RNAGym collection of RNA variant scans (doi:10.1073/pnas.2313332121):
Variants at the background level are over-represented here.

B1: TPR 5TU (parent)
chain: GGAUCUUCUCGAUCUAACAAAAAAGACAAAUCUGCCACAAAGCUUGAGAGCAUCUUCGGAUGCAGAGGCGGCAGCCUUCGGUGGCGCGAUAGCGCCAACGUUCUCAACUAUGACACGCAAAACGCGUGCUCCGUUGAAUGGAGUUUAUCAUG

Variants of: B1
Assay: polymerase ribozyme fitness, log enrichment relative to wild type (log ratio); higher = more active; in vitro selection for triplet polymerase activity
Procedure, shortened: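 Mutant libraries of both subunits of a heterodimeric triplet polymerase ribozyme were PCR-built, transcribed, and selected once in triplicate, with frozen incubation at −7 °C and capture of gel-excised extended constructs on streptavidin beads before RT-PCR. Illumina sequencing of input and output libraries was filtered to genotypes with ≥10 input reads and ≥1 read per output. Fitness is the logarithm of genotype enrichment over wild-type enrichment, using inverse-variance-weighted replicate averages. The logarithm is base 2.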

Polymerase ribozyme fitness (log ratio), -4.17:
C32A C54U C93A A110G A137G G140C

Polymerase ribozyme fitness (log ratio), -1.81:
C32U G59C G84A

Polymerase ribozyme fitness (log ratio), 0.625:
U31G G59A

Polymerase ribozyme fitness (log ratio), ≤ -4.2:
U31G G94U U104A G136A A147C
C32A U146C
C32A G48A G50A U78A A113U
U31G U44A G94U C99G G128A U130G G152U
U33A G59A A106C A113U G124U
C32G A40U U45G G84A C95G G141A
U33C U53A A91U U144C A147G
U31G A40U G48A G84A C87U A119U
U31G U44A A49C C96A A115U C118U A119C
U33C A39C G62C G88A C118G C123A
U31G A52C C87U C93G
C32G G48C C57G G80U C85U G140U
C32U G48C C63A A64C G81A G100A A106G
U31G C36A U44G G50U A89G C99U A115C U151C
C32U U55A A91C U102G
U33C U45A G84U U144C
C32G G42U U55A U61A C85A C95A A107U
C32G A47C C85U C105G A110G U144C
C32U C38U C79G G84U C118U C149G
C32G G81A A147U C149U
C32A C54U C79G G84U
C32U C54G U90G G136U
C32A C35U C36G A60C A110G
C32G C93G A107G
C32U G62U A91C
C32U G88U G140C A142C
C32G C54A G59C C93U C105U
U31G U77C A91C C108U
C32G U44A C76A C85U C93A C103U A115U C125U
C32A U56A C85U A113C
C32A G42U U82C C95U U102G C108G G140U U146A
C32G G50A G58C G86U C103U A121G C131G G140U
U33A U45A G81C G92U U146C U151A
C32U A49U C51U C75U U102C U146G
U31G G42U U45A U78G G84U A91C A97U A115U
C32U G50U G58A U61G C93G C103G A121U C129A G136A G140A U151G
C32U U82G A107C
C32U U102G G136A
C32G C69A A89U U134G
C32G U55A C76U A89G C95U C96G
C32U U44A C72G C85U G86U U104G A110G
U33A G74C G88A A91G G141A
C32G U53A U56G C57U A97U
U33C C79G C87U
C32G U33G A47C U56A G83U G92C C131A
U33C A122G U127G
C32A U102G
C32U A49C U82C C96A A98C G117U A142G
U31C U77A A89U G92A
U33C G42C U53A C85A A113U A119U
C32U G59A C93U U104G U148C
C32U G48A G84C U90A
C32G A41U U82A G83A C95G C96G C118A G128C U130C G143C
C32U C69A C93A C96A C99U A147U
U33A G84A A97U A110U G143U U144A
C32A U61G C76A C96U
C32U A52C U55G C118U
C32U C79A C131U U134C U144C
C32G A49C A52C G143U
U31G C38A C93G G141C
C32U A52C U53A C75A C85G C96U U111G G126A
U31C U56A C93G A97U U151A
U33A G71A C85G A138C G140U
C32A A41C G83C G94A A110U U127G
C32A C93U G140A
U31C U44A G94C C96G U102G U151C
C32A G117U U148A
C32U A37U C93A A97G U144G
C32G C38A C54U C87G C93A A106C G117C
U33A C93A
U33A U55A G83A G126U
U33C G88A C96U U102G C116U A142U
U33C C85A C103A G136A
C32A G48U A49C U55G G58A A119C C149U
C32U A39G C54U G59A C96A
C32U A39G A41C U56C C79G
U31G A41C C54G A73U C79A G143C
U33A U56A G94A
U31C U44A A73G C108U C125A
C32G C93A C103G C118A U127G
C32U U44A G50U U78C G83U A120G
C32G C57A G58C U77G C123U
U33A G83A C95U U151C
U33A C75G C85A G143U
C32G A41C G65A A66C
U33A A60C G83A C87G A137U
C32G U53A C87A A91C
C32G G59C C96A U144A
U33C C76G C93A
C32U A91G C93U G140C A142G
C32G C85U A110G G126C
C32A G71C A89U
C32G U56A U104A G126C U148A
C32G U33A A122G
C32A G46A C93A A98C C99U A107C G152U
C32A U55A C69A
C32U G94C A106C
U33A A49C C76G C87G U90A C149A
U31G A52G A66U G68A A91G C96A G112A A119U G136U
U31G C79U U90G A106G C108A A137C
C32U U33C A41C C75A U139G G140C
C32A A47U C114U G126U
U33A G84A C149G
C32U A39U U61A C118G
U33C C36U A113U U148A
C32G G34C C57U C96G G112A
C32G C35G C76U U78C A89U C103G
C32A G71C G92A A142G
C32A C38A G70A C95U
U31G G84U C103A G126C
U33C C36U C54A C72U G84U C85A U148G
U31G G42C U151A
C32U A37G G59A A91C C108G
C32A A37C C95U
U33A A60C G74A A137C A150U
C32U C35G C85A U90A A107G U151G
U31G C35G A52C G70A C116U U139A A142C
C32A A40U G62U C85G U146A
C32G A49G C76A U82C U104G
U33C C76G C93A A137U
U33A G67U A97G A120G
C32U C43G U55A C76A C85U G92U C132U
U33A G70A U77C C99U
C32A G34U U55G G94C U127C
U33A U56A C87G U102A U135C
U33A G65C G71A G92C A98G G100U
C32U A41U A91C C125G
C32A A40U G48C G88A U134A
U33C A40U A137G G152C
C32A G62A C63U C114G C116U A121C
C32G G34C A37C C54A U78G C87G C99U A110U C114G
U33C G81U C99A A110G A119C C132U G133C
C32G A40U C63U G81C A113G C125U U135C U148A
C32A A41C C54U G94A A115G G133A
C32G G50A U61A G62C G71A A91U G94C A138C
C32U U61A G74U C76A U82G U90C C95G
C32U U135G
U33A G58C G92A G136U
U31G C35G C43U C72A G92A
U31G A49C A60G
C32G C57A U82C G88U C105U
C32A G42C G62A C95A
C32G G46U A47G U53G C75G C108G A110C U145G
C32G A40G A73G A91C
C32U U45A C54A G84A C85A G92A C93A

Polymerase ribozyme fitness (log ratio), -3.11:
C32U A52C U55G C57A

Polymerase ribozyme fitness (log ratio), -1.02:
U31G C54G

Polymerase ribozyme fitness (log ratio), -0.747:
U31G G84A A89G

Polymerase ribozyme fitness (log ratio), -3.92:
C32A C38U U55A G94A G126C

Polymerase ribozyme fitness (log ratio), 0.14:
U31C G143A

Polymerase ribozyme fitness (log ratio), -4.02:
U33A C75G U78A U101A G152U

Polymerase ribozyme fitness (log ratio), -3.84:
C32U G58C C63A

Polymerase ribozyme fitness (log ratio), -3.62:
U31G U53A A91G A122G

Polymerase ribozyme fitness (log ratio), 0.158:
U31C G92C G126U

Polymerase ribozyme fitness (log ratio), -4.09:
C32G U53C C76A

Polymerase ribozyme fitness (log ratio), -4.19:
C32G G50C C51U G88A A110G
C32G U56A C57A C114G

Polymerase ribozyme fitness (log ratio), -1.99:
C32U G59A

Polymerase ribozyme fitness (log ratio), -3.86:
U33A C43A C76U G92A G117U

Polymerase ribozyme fitness (log ratio), 0.083:
U31G U56A

Polymerase ribozyme fitness (log ratio), -1.41:
U31G A89G C95U

Polymerase ribozyme fitness (log ratio), -1.97:
U31G G50U U56G

Polymerase ribozyme fitness (log ratio), -2.71:
U31G C54U U109G A137G

Polymerase ribozyme fitness (log ratio), -4.03:
U31G A91U
